The record followed here is US20200109202A1 (published 2020).

For test [1], the target named is aTriFlex_A. Nature of the test: flow cytometry on primary human NK cells; w/o human IgG, 37 C.
In test [2] the target is aTriFlex_A. Nature of the test: flow cytometry on primary human NK cells; + 10 mg/mL human IgG, 37 C.

B1: primary human NK cells (receptor)
chain: not shown
Consider B1, for which the dissociation constant Kd with aTriFlex_A [1] is 33.6 nM; in the test with aTriFlex_A [2] it was 665 nM.
